# Hit rate of the full screen: of about 310,000 compounds, about 18,000 (5.8%) were called active. Inconclusive results, whose numbers are uncertain, are shown with a selection of clear calls. The call rests on the fitted dose curve; in most records, active means well fitted inhibition curve with a large enough effect; inconclusive means small, poorly fitted or top-dose-only effect, or another doubt; inactive means no such curve, though single readings can be large or run the other way. No potency is given beside an inconclusive call; the fits are too rough.
# Assay: Primary qHTS for delayed death inhibitors of the malarial parasite plastid, 48 hour incubation
# Conditions: P. falciparum luciferase growth in erythrocytes; series mostly up to 28.7 µM; activity change, negative = inhibition: at the top concentration
# In short: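 Here the parasites carry a stable luciferase gene and grow inside erythrocytes in Albumax-based RPMI medium with compound for one erythrocytic cycle. Activity is scored as loss of luminescent signal.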
# On the % scale 0 is the no-effect control and ±100 the full control effect; potency means the concentration at half of the fitted maximal effect; tags describe the fitted curve by direction and shape.
Structure (SMILES),Potency,"activity change, negative = inhibition"
O=C(COc1cc(O)c2c(=O)cc(-c3ccccc3)oc2c1)c1cccc([N+](=O)[O-])c1,active: 4.15 µM,–
COc1cccc(N(CC(=O)Nc2ccccc2C)S(C)(=O)=O)c1,"inconclusive [inhibitor, single point]",–
COc1ccccc1C(=O)NCCn1ccc2ccccc21,"inconclusive [inhibitor, single point]",–
CC(C)(C)c1cc(C(=O)NC2CC2)n(Cc2ccc(F)cc2)n1,"inconclusive [inhibitor, partial curve, poor fit]",–
CCOc1ccc(N(C)S(=O)(=O)c2ccc(C)c(C(=O)NCc3ccccc3OC)c2)cc1,active: 11.7 µM,–
CCOC(=O)C1CCN(C2=NC(=O)/C(=C/c3ccccc3OC)S2)CC1,"inconclusive [inhibitor, partial curve, poor fit]",–
Cc1c(C=C2C(=O)N(C)C(=S)N(C)C2=O)c2ccccc2n1CC(=O)NCC1CCCO1 (configuration not stated),"inconclusive [inhibitor, single point]",–
N#C/C(=C\c1cccc(Oc2ccc(C(F)(F)F)cc2[N+](=O)[O-])c1)c1nc2ccccc2[nH]1,"inconclusive [inhibitor, single point]",–
CCn1cc(/C=C(\NC(=O)c2ccccc2OC)C(=O)NCCCN2CCOCC2)c2ccccc21,"inconclusive [inhibitor, partial curve, poor fit]",–
O=C(CNS(=O)(=O)c1ccc2ccccc2c1)OCc1csc(-c2ccccc2)n1,–,inactive: -5.54%
CCOc1ccccc1NC(=O)Nc1ccc(Cl)cc1,"inconclusive [inhibitor, single point]",–
CCN=c1sc(C(=O)NCCc2ccccc2)cc(=O)n1CC,"inconclusive [inhibitor, single point]",–
Cc1cc(NC(=O)c2cc(CC(C)C)on2)no1,–,inactive: 81.9%
Cc1c(NC(=O)CSc2ccc(Cl)cc2)c(=O)n(-c2ccccc2)n1C,–,inactive: 18.2%
Cc1cccc(NC(=O)C2(C)CC3c4ccccc4C2c2ccccc23)c1 (configuration not stated),"inconclusive [inhibitor, partial curve, poor fit]",–
CCOc1ccc(N(CC(=O)NCc2ccccc2Cl)S(=O)(=O)c2c(C)noc2C)cc1,active: 13.1 µM,–
COc1ccc(CN(C)CC2CCCN(CCc3ccc(F)cc3)C2)cc1OC (configuration not stated),"inconclusive [inhibitor, partial curve]",–
Cc1nn(C)c(C)c1CN(Cc1nc(-c2ccc(F)cc2F)oc1C)C1CC1,"inconclusive [inhibitor, single point]",–
Cc1cccc(OCCCCCn2ccnc2)c1,"inconclusive [inhibitor, single point]",–
CCn1cc(C(=O)O)c(=O)c2cc(F)c(N3CCN(C(=O)Nc4ccccc4)CC3)cc21,active: 0.465 µM,–
COc1ccccc1N/C(N)=N/c1nc(C)cc(C)n1,"inconclusive [inhibitor, single point]",–
COc1ccc(CN2CCN(C(=O)CCC(=O)Nc3nnc(C(C)C)s3)CC2)cc1F,–,inactive: -1.74%
CN1c2ccccc2Sc2cc(N)ccc21,"inconclusive [inhibitor, partial curve, poor fit]",–

Structure (SMILES),Potency,"activity change, negative = inhibition"
COc1ccc(Nc2oc(COc3ccc(C)cc3)nc2C#N)cc1,"inconclusive [inhibitor, partial curve, poor fit]",–
Cc1nc(C)c(/C(O)=C/c2nc3ccccc3oc2=O)s1,"inconclusive [inhibitor, partial curve, poor fit]",–
COc1ccc(S(=O)(=O)Nc2cccc(-c3ccc4nncn4n3)c2)cc1,"inconclusive [inhibitor, single point]",–
COc1ccc(C2C(C(=O)c3sc(C)nc3C)=C(O)C(=O)N2CCN(C)C)cc1OC (configuration not stated),–,inactive: 13.3%
O=C(NC1CCCCC1)c1ccccc1-c1ccccc1,–,inactive: 7.47%
O=C(Nc1cccc(Cl)c1)NC1CC2CCC(C1)N2Cc1cccs1 (configuration not stated),"inconclusive [inhibitor, single point]",–
CCCCCc1nc2c(c3c1CCCC3)CCCC2,"inconclusive [inhibitor, single point]",–
Cc1ccc(C2C=C(c3ccccc3OC(F)F)Nc3ncnn32)cc1 (configuration not stated),"inconclusive [inhibitor, single point]",–
O=C(CN1CCN(c2ccc(F)cc2)CC1)NCc1cccs1,–,inactive: -14.8%
Cc1ccc(NC(=O)c2sc3nc(N4CCOCC4)c4c(c3c2N)CC(C)(C)OC4)cc1,"inconclusive [inhibitor, full curve, poor fit]",–
Fc1ccc(-c2n[nH]c(=S)c3ccccc23)cc1,"inconclusive [inhibitor, partial curve, poor fit]",–
CCCCOC(=O)/C=C\C(=O)NC(N)=O,"inconclusive [inhibitor, partial curve, poor fit]",–
C=CCC1(CC=C)CCCN1C(=O)c1cc(COc2ccccc2SC)on1,active: 14.7 µM,–
O=C(Cn1ncc2c3ccccc3n(Cc3ccccc3F)c2c1=O)N1CCN(c2ccccn2)CC1,"inconclusive [inhibitor, full curve, poor fit]",–
CCCn1nc(NC(=O)c2cccs2)c2cc3ccc(C)cc3nc21,active: 2.94 µM,–
CCn1ccnc1CN(C)Cc1cn(-c2ccc(C)cc2)nc1-c1cccc(C)c1,active: 6.57 µM,–
Clc1ccc(CN2C3=NCCCN3c3ccccc32)cc1Cl,"inconclusive [inhibitor, single point]",–
O=C(Cc1c(Sc2ccccc2)c2ccccc2n1Cc1ccccc1)NCCO,"inconclusive [inhibitor, single point]",–
COc1ccccc1CNC(=O)c1cc(S(=O)(=O)N2CCCCC2)c[nH]1,"inconclusive [inhibitor, full curve, poor fit]",–
COc1ccc(CCCC(=O)NCCc2ccccc2)c(C)c1,"inconclusive [inhibitor, single point]",–
O=C(c1ccc2c(c1)OCCO2)C1CCN(C(=O)c2ccc(F)c(F)c2)CC1,"inconclusive [inhibitor, partial curve]",–
C/C(=N\Nc1c(F)c(F)c(Br)c(F)c1F)c1ccncc1,–,inactive: -4.43%
O=C(Nc1cccc(CNCCc2c[nH]c3ccccc23)c1)c1ccccc1Cl,"inconclusive [inhibitor, partial curve]",–

Structure (SMILES),Potency,"activity change, negative = inhibition"
COc1cccc(-n2c(CN3CCN(Cc4ccccc4)CC3)nc3ccc([N+](=O)[O-])cc3c2=O)c1,active: 11.7 µM,–
CCOC(=O)C(=O)Nc1nccs1,–,inactive: 5.99%
Cc1cccc(NS(=O)(=O)c2ccc(C(=O)N3CC(C)OC(C)C3)cc2)c1C (configuration not stated),–,inactive: -25.2%
O=C1Cc2cc(S(=O)(=O)NCc3ccccc3Cl)cc3c2N1CCC3,"inconclusive [inhibitor, partial curve, poor fit]",–
CCOC(=O)C1CCN(CC(=O)N2CCc3ccccc32)CC1,–,inactive: 0.468%
CC1CCCC(C)N1C(=O)CN1C(=O)C(C)(C)Oc2ccc(C(=O)NC3CCCC3)cc21 (configuration not stated),"inconclusive [inhibitor, single point]",–
CCN(CC(=O)Nc1c(F)cccc1F)C(=O)CCNC(=O)c1ccco1,"inconclusive [inhibitor, single point]",–
O=C(Nc1nc(-c2ccccc2)cs1)C1CCCCN1S(=O)(=O)c1ccccc1 (configuration not stated),"inconclusive [inhibitor, single point]",–
CCS(=O)(=O)n1nc(-c2ccco2)nc1SC,"inconclusive [inhibitor, partial curve, poor fit]",–
CC(C)c1ccc(CSc2ccc(S(=O)(=O)N3CCOCC3)cn2)cc1,"inconclusive [inhibitor, single point]",–
CC(C)c1nn(-c2cc(C(F)(F)F)ccn2)c(=O)o1,"inconclusive [inhibitor, single point]",–
CCOC(=O)N1CCC(NC(=O)C2CCCN(C(=O)c3cc4sccc4n3C)C2)CC1 (configuration not stated),"inconclusive [inhibitor, partial curve, poor fit]",–
O=C(NCC1CCCO1)C1CCCN(Cc2cnn(-c3ccccc3)c2-n2cccc2)C1 (configuration not stated),"inconclusive [inhibitor, single point]",–
CCn1c(SCC(=O)N2CCCc3ccccc32)nc2c(c1=O)SC(C)C2 (configuration not stated),"inconclusive [inhibitor, partial curve, poor fit]",–
CCOC(=O)/C(C#N)=C\c1c(OCC)n(CC)c2ccccc12,"inconclusive [inhibitor, single point]",–
Cc1cccc(C(=O)Nc2nnc(Cc3ccccc3)s2)c1,"inconclusive [inhibitor, partial curve, poor fit]",–
Cc1cc(C)c(C#N)c(OCC(=O)c2ccccc2)n1,"inconclusive [inhibitor, full curve, poor fit]",–
Cn1nc(C(C)(C)C)c(NC(=O)c2sccc2Cl)c1C(C)(C)C,"inconclusive [inhibitor, single point]",–
Cn1nc(C(F)(F)F)c(C(=O)Nc2ccc(F)cc2F)c1Oc1cccc(Cl)c1,–,inactive: -41.5%
Cc1cc(C)nc(NS(=O)(=O)c2ccc(NC(=O)c3ccc(S(=O)(=O)N4CC(C)OC(C)C4)cc3)cc2)n1 (configuration not stated),"inconclusive [inhibitor, partial curve]",–
O=C1[C@@H]2Cc3c([nH]c4ccccc34)C(c3ccccc3)N2C(=O)CN1C1CC1 (some centres not stated),"inconclusive [inhibitor, partial curve, poor fit]",–
